Source: the supplement of paper PMC3334620
Over roughly 33,000 sequences, “E-score (-0.5 to 0.5)” has its median near -0.053; the highest 2% begin near 0.37. This is one part of the list.

What follows are sequences tested against Hap1 (UniProt P0CE41) (assay: PBM E-score (8-mer binding enrichment) (E-score (-0.5 to 0.5)); higher = stronger / more preferred TF binding; most listed sequences are background and not binding sites). Details: protein concentration: 200 nM; construct: GST-DNA-binding domain.
Outline: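 Yeast transcription factors carrying a GST tag, as full-length proteins or DNA-binding domains, were produced by PURExpress in vitro transcription/translation. About 100-200 nM protein was applied to universal all-10-mer Agilent arrays, double-stranded by primer extension on fresh or once-stripped slides. Bound protein was detected with fluorescent anti-GST, and scans were normalised with masliner. The Universal PBM Analysis Suite gave each ungapped eight-base word, pooled with its reverse complement, an E-score, a modified Wilcoxon-Mann-Whitney statistic.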

UniProt P0CE41, sequence (P0CE41 whole entry, the tested form may be a part): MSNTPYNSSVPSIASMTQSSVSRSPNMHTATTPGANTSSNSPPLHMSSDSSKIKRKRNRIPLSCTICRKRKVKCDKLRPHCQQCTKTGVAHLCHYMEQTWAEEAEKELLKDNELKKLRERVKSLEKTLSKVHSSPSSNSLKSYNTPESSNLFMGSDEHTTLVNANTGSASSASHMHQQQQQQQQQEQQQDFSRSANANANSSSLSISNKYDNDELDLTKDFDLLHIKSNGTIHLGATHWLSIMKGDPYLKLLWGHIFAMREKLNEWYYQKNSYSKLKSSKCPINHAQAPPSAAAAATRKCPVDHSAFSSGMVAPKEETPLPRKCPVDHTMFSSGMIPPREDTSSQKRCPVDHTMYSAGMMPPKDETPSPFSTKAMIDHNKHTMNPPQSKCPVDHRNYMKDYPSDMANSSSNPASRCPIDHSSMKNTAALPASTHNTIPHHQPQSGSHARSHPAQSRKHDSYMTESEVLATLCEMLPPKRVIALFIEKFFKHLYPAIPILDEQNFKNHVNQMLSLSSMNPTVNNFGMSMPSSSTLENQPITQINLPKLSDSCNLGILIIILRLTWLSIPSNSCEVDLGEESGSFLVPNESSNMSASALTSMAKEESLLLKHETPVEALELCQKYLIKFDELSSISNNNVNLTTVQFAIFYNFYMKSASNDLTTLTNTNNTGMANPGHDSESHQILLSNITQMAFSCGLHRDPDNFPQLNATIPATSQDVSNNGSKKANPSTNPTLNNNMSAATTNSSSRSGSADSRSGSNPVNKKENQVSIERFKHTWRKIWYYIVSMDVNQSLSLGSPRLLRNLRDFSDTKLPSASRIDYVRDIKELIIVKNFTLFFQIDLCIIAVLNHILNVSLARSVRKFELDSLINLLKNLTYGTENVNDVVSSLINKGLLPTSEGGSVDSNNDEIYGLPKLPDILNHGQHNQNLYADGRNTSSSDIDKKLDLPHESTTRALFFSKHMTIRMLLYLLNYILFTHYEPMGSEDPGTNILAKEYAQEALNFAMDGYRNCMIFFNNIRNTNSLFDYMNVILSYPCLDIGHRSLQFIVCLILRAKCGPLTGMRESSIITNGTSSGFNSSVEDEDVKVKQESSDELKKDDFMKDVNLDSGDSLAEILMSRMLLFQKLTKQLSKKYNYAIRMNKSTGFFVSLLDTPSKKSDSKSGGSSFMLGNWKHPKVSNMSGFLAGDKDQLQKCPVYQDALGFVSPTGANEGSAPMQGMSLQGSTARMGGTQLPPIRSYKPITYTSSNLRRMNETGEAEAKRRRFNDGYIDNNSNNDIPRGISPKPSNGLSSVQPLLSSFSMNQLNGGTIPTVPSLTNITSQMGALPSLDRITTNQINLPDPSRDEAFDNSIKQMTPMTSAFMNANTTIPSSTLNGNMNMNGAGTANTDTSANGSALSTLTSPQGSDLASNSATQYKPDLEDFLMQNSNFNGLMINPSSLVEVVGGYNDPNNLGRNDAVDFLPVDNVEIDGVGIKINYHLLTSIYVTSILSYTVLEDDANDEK

Sequence | PBM E-score
ACTTACGC | 0.196
GACTCTGA | -0.083
GTCGGGGA | 0.301
AAGGCCCC | -0.0358
ACTGTGTC | -0.0909
AATTAGGG | 0.0466
ACGAACAA | 0.111
AGTGTAAC | -0.13
CACGCACA | 0.0064
GCCACACA | 0.0335
GAAGAATA | -0.237
CGGGGACG | 0.163
AGGGAGCC | -0.167
ACAATCAC | -0.0371
CTGGCTAA | -0.183
CAATGGTA | -0.146
GACAATTA | 0.00249
ACGAGGCG | -0.00909
CCGAGGAG | 0.349
CGGAGTAG | 0.324
AGATAGCT | 0.0583
AGTGTTTC | -0.205
TGCTCACA | -0.342
AGTTGAAC | -0.195

Sequence | PBM E-score
ATACTCGG | 0.264
AAGAATAC | -0.137
CACGAACA | -0.113
TCCTGGCA | -0.0869
ATGTTTGA | -0.203
GCGCTCCC | -0.254
CGCCGGGA | 0.317
CATGTATA | -0.235
ATAACGTA | 0.175
ATGCTGTG | -0.227
TAAGAGCA | -0.077
GCGAATCA | 0.077
GCTTAGAC | -0.0848
CCAAGGCC | -0.18
ATGAGTGG | -0.152
ACGCGCAT | -0.0842
CAATAAAG | -0.0152
CCCCTGGA | -0.205
AGATATCC | 0.192
AAATGATT | 0.194
ATGTCAGA | -0.277
CTACTGGA | 0.0203
TCCGTGAA | 0.284
ACGATCGC | -0.00383

Sequence | PBM E-score
AGCGAACA | -0.0568
AGGGACAA | 0.0169
GTAAAGGA | -0.0862
CACTTGAG | -0.256
ACCCCCTA | -0.349
GACCAGAA | -0.107
GCGAGGCC | -0.00446
ACCAACCG | 0.16
GCCGGGCC | 0.221
ACGAATAA | 0.0681
GGGCCTTA | -0.0268
AGGTCTCG | -0.0277
GTTTCGAA | -0.219
AGCCCCCA | -0.257
TCCTTGCA | -0.114
GTACGAAC | 0.172
GCAGAACA | -0.0762
AGCGTGAC | -0.162
CTCTTCCC | -0.144
CAGGAACC | -0.117
CACGTCAA | -0.209
ATATCCAT | -0.0163
AGATCTAT | -0.127
AATTGGTC | -0.00517

Sequence | PBM E-score
AAGCTTGG | -0.263
ACGCCATG | -0.261
CGCTGGTA | -0.115
AACCACCT | 0.0117
AGGAGGAA | -0.218
ACCCAAGT | -0.113
AACTAGTC | -0.195
ATACTGGG | 0.0868
AACGATCG | 0.0439
AGCCTAAT | -0.204
AATATTAA | 0.0835
ATATATGA | -0.0929
CGGTCCAG | 0.176
AACAACGC | -0.11
ACGCTAGG | -0.299
CTTTCGTA | -0.158
GACGTACC | -0.0275
GCCAGGCA | 0.0384
ACGTCAAA | -0.217
CACCCTTA | 0.0502
GTATGATA | 0.00294
GAAACTTC | 0.143
